Test results: paper PMC4860839, “Structures of the APC–ARM domain in complexes with discrete Amer1/WTX fragments reveal that it uses a consensus mode to recognize its binding partners” (Cell Discovery, 2015)
Substitutions are numbered along the chain they refer to. In names and notes the source's numbering stands. No constants are given. Whether binding was seen depends on the method and setting. For part of these data: In cells and extracts the contact can be indirect. Some entries that bind do so weakly or less than the wild type. For part of these data: Sequences can lack the tags named with a protein.

Key:
[1] = target: T1, GST-Amer1 (325–335), core A1 (human); assay: ITC; ITC200, 25 °C; 50 mM HEPES pH 7.5, 300 mM NaCl, 1 mM EDTA; typically 200 μM APC–ARM injected into 20 μM GST-Amer1 fragment, or 1 mM GST-Amer1 fragment into 80 μM APC–ARM; single-site model; both purified
T1 construct: human Amer1/WTX residues 325–335; The results call the ITC samples peptides; the ITC methods name GST-Amer1 proteins; also called Amer1-A1; not shown: GST, N-terminal, kept
T1 chain: LTGCGDIIAEQ

[2] = target: T2, GST-Amer1 (496–508), core A2 (human); assay: as above
T2 construct: human Amer1/WTX residues 496–508; The results call the ITC samples peptides; the ITC methods name GST-Amer1 proteins; also called Amer1-A2; not shown: GST, N-terminal, kept
T2 chain: PRDSYSGDALYEF

[3] = target: T1, GST-Amer1 (325–335), core A1; assay: pull-down; GST-Amer1 fragments pre-immobilised on the GST affinity column, APC–ARM protein added at 4 °C; wash 25 mM Tris-HCl pH 8.0, 250 mM NaCl, 1 mM EDTA, 14 mM β-mercaptoethanol; glutathione elution, SDS–PAGE, Coomassie; both purified
[4] = target: T2, GST-Amer1 (496–508), core A2; assay: as above
[5] = target: pBTM-APC–ARM (residues 308–789), two-hybrid bait (human) (UniProt P25054); assay: two-hybrid; L40 yeast, APC–ARM in pBTM116 (bait), Amer1 sites in pVP16 (prey); β-galactosidase activity and growth on –His; 7 mM (A4) or 10 mM (A1, A2, A3) 3-aminotriazole
[6] = target: pBTM-APC–ARM (residues 308–789) M717K (human) (UniProt P25054); assay: as above
[7] = target: pBTM-APC–ARM (residues 308–789) N507K (human) (UniProt P25054); assay: as above
[8] = target: pBTM-APC–ARM (residues 308–789) R549E (human) (UniProt P25054); assay: as above
[9] = target: pBTM-APC–ARM (residues 308–789) K516E (human) (UniProt P25054); assay: as above
[10] = target: pBTM-APC–ARM (residues 308–789) N550K (human) (UniProt P25054); assay: as above
[11] = target: T3, Amer1 (496–508) L505D (human) (UniProt Q5JTC6); assay: ITC; ITC200, 25 °C; 50 mM HEPES pH 7.5, 300 mM NaCl, 1 mM EDTA; typically 200 μM APC–ARM injected into 20 μM GST-Amer1 fragment, or 1 mM GST-Amer1 fragment into 80 μM APC–ARM; single-site model; both purified
T3 sequence: PRDSYSGDADYEF

[12] = target: T4, Amer1 (496–508) D503A (human) (UniProt Q5JTC6); assay: as above
T4 sequence: PRDSYSGAALYEF

FL APC (human) = FL APC (human) (UniProt P25054); assay: co-IP; HEK293T cells transiently transfected; immunoprecipitation with anti-GFP or anti-FLAG M2 beads, western blot
Amer1 (766–777) (human) [13] = target: T5, Amer1 (766–777) (human) (UniProt Q5JTC6); assay: ITC; ITC200, 25 °C; 50 mM HEPES pH 7.5, 300 mM NaCl, 1 mM EDTA; typically 200 μM APC–ARM injected into 20 μM GST-Amer1 fragment, or 1 mM GST-Amer1 fragment into 80 μM APC–ARM; single-site model; both purified
T5 sequence: TVSFSQALVEFT

Amer1 (786–823) (human) [14] = target: T6, Amer1 (786–823) (human) (UniProt Q5JTC6); assay: as above
T6 sequence: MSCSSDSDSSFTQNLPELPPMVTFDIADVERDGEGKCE

Amer1 (766–777) (human) [15] = target: T5, Amer1 (766–777) (human); assay: pull-down; GST-Amer1 fragments pre-immobilised on the GST affinity column, APC–ARM protein added at 4 °C; wash 25 mM Tris-HCl pH 8.0, 250 mM NaCl, 1 mM EDTA, 14 mM β-mercaptoethanol; glutathione elution, SDS–PAGE, Coomassie; both purified
Amer1 (786–823) (human) [16] = target: T6, Amer1 (786–823) (human); assay: as above

APC (407–751) N507K (from UniProt P25054 407-751) (domain or fragment)
binding [1]: no binding
binding [2]: no binding
binding [3]: no binding
binding [4]: no binding

APC (407–751) K516E (from UniProt P25054 407-751) (domain or fragment)
binding [1]: no binding
binding [2]: no binding

B1: Amer1-A3 (murine, residues 721–838), two-hybrid prey (domain or fragment, UniProt Q7TS75 721-838)
chain: CLMQLFQSDAMFEPDMQEANFGGSPRKAYPSYSPPEEPEEEEEEKEGNATVSFSQALVEFTSNGNLFTSMSYSSDSDSSFTQNLPELPPMVTFDIADVERDGEGKCEENPEFNNDEDL
binding [5]: binds
binding [6]: no binding
binding [7]: binds
binding [8]: binds
binding [9]: binds
binding [10]: binds

B2: APC–ARM, human APC (407–751), N-terminally His-tagged (domain or fragment, UniProt P25054 407-751, looked up)
chain: LHLLEQIRAYCETCWEWQEAHEPGMDQDKNPMPAPVEHQICPAVCVLMKLSFDEEHRHAMNELGGLQAIAELLQVDCEMYGLTNDHYSITLRRYAGMALTNLTFGDVANKATLCSMKGCMRALVAQLKSESEDLQQVIASVLRNLSWRADVNSKKTLREVGSVKALMECALEVKKESTLKSVLSALWNLSAHCTENKADICAVDGALAFLVGTLTYRSQTNTLAIIESGGGILRNVSSLIATNEDHRQILRENNCLQTLLQHLKSHSLTIVSNACGTLWNLSARNPKDQEALWDMGAVSMLKNLIHSKHKMIAMGSAAALRNLMANRPAKYKDANIMSPGSSLPS
notes: human APC, armadillo repeat (ARM) domain, residues 407–751; source: E. coli BL21(DE3), purified (Ni2+-NTA, Superdex200)
binding [11]: no binding
binding [12]: no binding

B3: Flag-tagged Amer1 (residues 2–700) (domain or fragment, UniProt Q5JTC6 2-700)
chain: ETQKDEAAQAKGAAASGSTREQTAEKGAKNKAAEATEGPTSEPSSSGPGRLKKTAMKLFGGKKGICTLPSFFGGGRSKGSGKGSSKKGLSKSKTHDGLSEAAHGPEDVVSEGTGFSLPLPELPCQFPSSQSAHGALETGSRCKTSVAGATEKAVAEKFPSMPKPKKGLKGFFSSIRRHRKSKVTGAEQSEPGAKGPERVRARPHEHVSSAPQVPCFEETFQAPRKENANPQDAPGPKVSPTPEPSPPATEKMACKDPEKPMEACASAHVQPKPAPEASSLEEPHSPETGEKVVAGEVNPPNGPVGDPLSLLFGDVTSLKSFDSLTGCGDIIAEQDMDSMTDSMASGGQRANRDGTKRSSCLVTYQGGGEEMALPDDDDEEEEEEEEVELEEEEEEVKEEEEDDDLEYLWETAQMYPRPNMNLGYHPTTSPGHHGYMLLDPVRSYPGLAPGELLTPQSDQQESAPNSDEGYYDSTTPGFEDDSGEALGLVRRDCLPRDSYSGDALYEFYEPDDSLENSPPGDDCLYDLHGRSSEMFDPFLNFEPFLSSRPPGAMETEEERLVTIQKQLLYWELRREQLEAQEARAREAHAREAHAREAYTREAYGREAYAREAHTWEAHGREARTREAQAREVRCRETQVRETQARQEKPVLEYQMRPLGPSVMGLAAGVSGTSQISHRGITSAFPTTASSEPDWRDFRP
binding (FL APC (human)): binds

B4: Flag-tagged Amer1 (2–700) D330K/D503K double mutant (domain or fragment, UniProt Q5JTC6 2-700)
chain: B3 chain with D329K, D502K
binding (FL APC (human)): binds

B5: APC–ARM, human APC (407–775), N-terminally His-tagged (domain or fragment, UniProt P25054 407-775, looked up)
chain: LHLLEQIRAYCETCWEWQEAHEPGMDQDKNPMPAPVEHQICPAVCVLMKLSFDEEHRHAMNELGGLQAIAELLQVDCEMYGLTNDHYSITLRRYAGMALTNLTFGDVANKATLCSMKGCMRALVAQLKSESEDLQQVIASVLRNLSWRADVNSKKTLREVGSVKALMECALEVKKESTLKSVLSALWNLSAHCTENKADICAVDGALAFLVGTLTYRSQTNTLAIIESGGGILRNVSSLIATNEDHRQILRENNCLQTLLQHLKSHSLTIVSNACGTLWNLSARNPKDQEALWDMGAVSMLKNLIHSKHKMIAMGSAAALRNLMANRPAKYKDANIMSPGSSLPSLHVRKQKALEAELDAQHLSETFDN
notes: human APC, ARM domain, residues 407–775; source: E. coli BL21(DE3), purified (Ni2+-NTA, Superdex200)
binding (Amer1 (766–777) (human) [13]): no binding
binding (Amer1 (786–823) (human) [14]): no binding
binding (Amer1 (766–777) (human) [15]): no binding
binding (Amer1 (786–823) (human) [16]): no binding

B6: Flag-tagged Amer1 (2-700, D330K/D503K/E370K) triple mutant (domain or fragment, UniProt Q5JTC6 2-700)
chain: B3 chain with D329K, E369K, D502K
binding (FL APC (human)): no binding
